Results as given in the RNAGym collection of RNA variant scans (doi:10.1073/pnas.2313332121).
This sample is rich in variants without activity.

B1: TPR 5TU (parent)
chain: GGAUCUUCUCGAUCUAACAAAAAAGACAAAUCUGCCACAAAGCUUGAGAGCAUCUUCGGAUGCAGAGGCGGCAGCCUUCGGUGGCGCGAUAGCGCCAACGUUCUCAACUAUGACACGCAAAACGCGUGCUCCGUUGAAUGGAGUUUAUCAUG

Variants of: B1
Test: polymerase ribozyme fitness, log enrichment relative to wild type (log ratio); higher = more active; in vitro selection for triplet polymerase activity
Outline: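 Frozen incubation at −7 °C formed the core of a single, triplicate in vitro selection round applied to PCR-built, transcribed mutant libraries of each subunit of a heterodimeric triplet polymerase ribozyme. Extended constructs were gel-excised, captured with streptavidin beads and amplified by RT-PCR, and input and output libraries were Illumina-sequenced with a filter of ≥10 input reads and ≥1 read per output. Fitness is the logarithm of genotype enrichment relative to wild-type enrichment, with inverse-variance-weighted replicate averaging, and the logarithm is base 2.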

Variant | polymerase ribozyme fitness (log ratio)
C35U U56A G74C A89C U101G C125A U130A | ≤ -4.2
C35U C43U C93U | ≤ -4.2
C35U G42C G68U C76U | ≤ -4.2
C36A G70U G80U C105U | -0.569
C35G C87G U102A A113G | ≤ -4.2
C36U C63U G65A G74A G143C U144C | ≤ -4.2
C36G U44G G71U C96A C108G G140C | ≤ -4.2
C36U A39G G68A G81A C87U C93G A107C A110C A119U | ≤ -4.2
C36G A91U G92U U101G C125A U134G U135G | ≤ -4.2
C35U C95A | -0.608
C36A G83A U134A | ≤ -4.2
C35G C75A C95U U102G U151C | ≤ -4.2
C35U U144A C149G A150C | ≤ -4.2
C35U G58C U90G U104A G126A U135A U145G | ≤ -4.2
C36U A66U G88A U109A C129G | ≤ -4.2
C36A U44A G62C C93U U135G U139C U144A | ≤ -4.2
C35G A49U G124C | ≤ -4.2
C35G C72U C95U A120U U146G A150C | ≤ -4.2
C35U U56A G59A G71A C85G C108G | ≤ -4.2
C36U A52C U55G G58C A64C C87A | ≤ -4.2
C36A C87G G100C C123U U130A A142C | ≤ -4.2
C35U C57A U61A G67A C95A C103A C116U | ≤ -4.2
C36A G92A U101A | ≤ -4.2
C36G C85A A113U | ≤ -4.2

Variant | polymerase ribozyme fitness (log ratio)
C35U A73U C75G C76G U90C | ≤ -4.2
C36U C38A A91U C103A C116A | ≤ -4.2
C36U A142C | -2.05
C36G U56A A98G | -3.71
C35G U56G C87A U90G | ≤ -4.2
C35G G94C U101C A115C | ≤ -4.2
C36U C79G C93A A107G | ≤ -4.2
C36G U45G G59C A66G U109G G152U | ≤ -4.2
C35G C75G A121U | ≤ -4.2
C35G G58C G92U C125G A150U | ≤ -4.2
C35G C95U A115G U145A | ≤ -4.2
C36A G68U C72U G94C | ≤ -4.2
C35G G84A C93U C108G A137U | ≤ -4.2
C35U C93A C103G | ≤ -4.2
C35G G141C | -3.66
C36A C76U | ≤ -4.2
C35U C38A G83U G152A | ≤ -4.2
C35G A91U G92A C99A U102C A137U G143A | ≤ -4.2
C36A C76G U82A | ≤ -4.2
C35U A41G G84C G112U | ≤ -4.2
C35U C43U G84A G94C | ≤ -4.2
C36U C85G C108U C125A | ≤ -4.2
C36A A150U | -4.01
C36A G50C U53A U56A C93U A115U | ≤ -4.2

Variant | polymerase ribozyme fitness (log ratio)
C36U C79G | ≤ -4.2
C36A U55G U101A | ≤ -4.2
C36G C54A C93G U146C A150U | ≤ -4.2
C36A G92A C99A A121C | ≤ -4.2
C36G C99G C132U U146C | -4.06
C36U A39U A52U U78G G83U A91G | ≤ -4.2
C35G U56A G58A A91C | ≤ -4.2
C36G C95U | -3.45
C35U G59C G81A G83A A110G G133C | ≤ -4.2
C36A G84A | -3.37
C36U A39C G50A C87A C96G A137U G141A | ≤ -4.2
C36U A66G G112A A142U | ≤ -4.2
C36U C63U C96U A138C U146A U148C | ≤ -4.2
C36G G80U C85U C87A U109G U139C A142G | ≤ -4.2
C35G C85G A89G A122G | ≤ -4.2
C35G G48C U77G C85U A113U | ≤ -4.2
C36U A40U A41U C54U G58A G67A C93A C114U G141A U144G | ≤ -4.2
C36G C75G G136C | ≤ -4.2
C35U G50U G68A C99G C114U U139G | ≤ -4.2
C36A A64C C108A U148A | ≤ -4.2
C35U A39G C51U C95G A138C | ≤ -4.2
C35U G133U | -3.79
C36A C43G C54U C69G C95U A107C | ≤ -4.2
C36G A52C A64C C76U C96G C131U U139G U148G | ≤ -4.2

Variant | polymerase ribozyme fitness (log ratio)
C35A U55A C87U G88U C99A C108U G124U A147U U148G U151A | ≤ -4.2
C35G C54U U55A C95A U102G C114U U134A | ≤ -4.2
C35U U45A A49C G80U C85G A106U | ≤ -4.2
C35U U55G C57A A60C G88U C96A U104C U127A U134C G136C A142G U146A | ≤ -4.2
C36U A49G A66U G83A C85G G88A C114U U146G | ≤ -4.2
C36U C51U U55A G68C C72U A107U G126U G140U | ≤ -4.2
C35A U90A U111C A137C | ≤ -4.2
C35U A49C | ≤ -4.2
C35A U56A C93U A115U A120C U148A | ≤ -4.2
C35G A49G C76U G86U G88A G117U | ≤ -4.2
C35U C43A A60C U101G | ≤ -4.2
C36G C69G U78C | ≤ -4.2
C36G G62A G74C C96U A98C A115U G124C C149U | ≤ -4.2
C35U A39C G50A G80C G84C A89C C93G C96G | ≤ -4.2
C36A A52G C85G C105G U146A | ≤ -4.2
C35U G59A A66C G84U C93U A98U G100A A106C A142C | ≤ -4.2
C36U A64G G140A A142C | ≤ -4.2
C35U G58A C95U | -0.16
C36U A41C G42C C85U U146G | ≤ -4.2
C36U C54U A64C C85G G88A C105U | ≤ -4.2
C35U U78A G128A | ≤ -4.2
C35U A66G C85A A98G | ≤ -4.2
C36A C79U C85U C95A C108U C149U | ≤ -4.2
C36U A52C A106U | ≤ -4.2

Variant | polymerase ribozyme fitness (log ratio)
C36G U55C U61G A97G | ≤ -4.2
C36G C38U C85G A89C G92C G126U G136C A147C | ≤ -4.2
C36A A41C C76A U102G C123A U148G | ≤ -4.2
C36G G58U G59A C93U A107U U148C | ≤ -4.2
C35U G48U C96U U101G C108A A115U G133A A150G | ≤ -4.2
C36U A47C U82G C96G G128U | ≤ -4.2
C35U A41G C85U G141U | 1.25
C36A U55A C63G C96U | ≤ -4.2
C35U G42U C57U U109A U130A | ≤ -4.2
C35A U134C | -3.61
C35G C79A G83A A121U | ≤ -4.2
C35U G50A A52C C57A A66U G88C A98U A115G G141A | ≤ -4.2
C36U A66U A120C U144G | ≤ -4.2
C36G C105U | -3.04
C35G G59U G88C G152C | ≤ -4.2
C35U G80A A91G G136A | -3.57
C36U C51A U55A | ≤ -4.2
C36G U56A C69G U139G A142U | ≤ -4.2
C35U A91U | ≤ -4.2
C36A C96U A121C A150U | ≤ -4.2
C36A G62A G86U G112C | ≤ -4.2
C35G G42A U130G C131A | -4.12
C35U A91C G94A U104G | ≤ -4.2
C35G G59C G68C G124C G136A U151G | ≤ -4.2

Variant | polymerase ribozyme fitness (log ratio)
C36U A41C A49U G50C G58U C93U A122G | ≤ -4.2
C35G C54A U56A C79G C99U G126U G143U | ≤ -4.2
C35A U144G U151A | ≤ -4.2
C36A A39G G59U C85A A98U A107C | ≤ -4.2
C35U U44A A49C G74U G80A U109G A121G | ≤ -4.2
C35G G86U C116U C129U | ≤ -4.2
C36A G59A C69A A97U C131A A147G | ≤ -4.2
C36G C87U A106U | ≤ -4.2
C35U C87G | -3.84
C36A U56A C95U A107C A137G G141A | ≤ -4.2
C35U C43A G50A U82A | ≤ -4.2
C35G A49C U90C A115C | ≤ -4.2
C35A U53A G62A | ≤ -4.2
C35G A73C C99G U146G | ≤ -4.2
C35G C63A G83C C85A | ≤ -4.2
C35U A39C G59A A91C C114G A147C | ≤ -4.2
C36A C63U | -4.08
C36U A107G U151A | ≤ -4.2
C35U C54A U82A C99A C105U A138C | ≤ -4.2
C35U C54U U55A C116G | 0.41
C35U C54A G84A U146C | -1
C35U C85A G86U U90A G94U | ≤ -4.2
C36U A91U | ≤ -4.2
C35U U44A C93U U134C | ≤ -4.2

Variant | polymerase ribozyme fitness (log ratio)
C36A C54A U55G C95G G112U C129U | ≤ -4.2
C35U C69U U102G C108U C129G | ≤ -4.2
C35G U44A C63A C95G C103A C116A U151C | ≤ -4.2
C36G C54U G92A A110G G143A | ≤ -4.2
C35A G143A | ≤ -4.2
C36A G70C C72A G84U C87U | ≤ -4.2
C35U U56A G68A A91U A110G G136U G143U | ≤ -4.2
C35G C54U U61A C93A A98G A138G | ≤ -4.2
C35U C43A G58U C75G C87G A121U C123U G133A | ≤ -4.2
C36U C43U U90A C108U | ≤ -4.2
C36A G46C C79U G88U U151A | ≤ -4.2
C36G U130C | -3.89
C35U C76U G81U G140A U151G | ≤ -4.2
C36U C75G C96G A121U | ≤ -4.2
C36A C96A | ≤ -4.2
C36A G67C G68C A73U C87A U148C | ≤ -4.2
C36U A52C C72A C85G C95G | ≤ -4.2
C35G G59U C95U C103A C114U C125G G143U U144G | ≤ -4.2
C35U G92C U135C | -2.73
C36A A40C G83C A106G U144A | ≤ -4.2
C35U G50C C76A C79G C87G A142C G152U | ≤ -4.2
C35U C38A A91G U144C | ≤ -4.2
C36G A37C A73U U78G C118A U145C | ≤ -4.2
